Data reported in the RNAGym collection of RNA variant scans (doi:10.7554/elife.90254).
The source gives no read counts; variants with many changes may rest on few reads.

B1: LINE1-full (parent)
chain: UACGUAGGUGGUUUUCCCCUGAUAGUGCUAAGGGGGCCUGGAAGUUUGGACUGGGCAGAGCUCAACACAGCGUGGCAAAGUGGCUGUGGCUAGACUGCCUCUCUGGAUUCCUCGUCACUCAGCAGGGCAUCUCUGAGAGAAAUGCC

Variants of: B1
Assay: self-cleavage, relative activity (ratio to wild type); higher = more cleavage; in vitro, sequencing; the parent is a self-cleaving ribozyme

Row | Variant | self-cleavage
1 | A22C C99U U108G | 1.75
2 | A22G A69U A136G A142G | 0.08
3 | U20C U39A C145A | 1.65
4 | A22G A79G U134C | 1.16
5 | A22G A67C G88A A94C | 0
6 | A22G U45C U62A A77G A117C | 0
7 | U20A U130A A141G | 1.11
8 | A22G U62C U104C U119A A138G | 0.18
9 | A22G A43G A77G | 1.56
10 | A22G G27A U87C | 0.12
11 | U20A U96C U112C | 0
12 | U20C A31U C101U | 1.58
13 | A22G U52A U112C | 1.23
14 | A22G G88A A117G A136U | 0.04
15 | A22G U45A U62C | 0.14
16 | G21U U52C A57G G139U | 0.89
17 | U20C G32A A69U | 0.04
18 | A22G G36A U96C G135A | 0.18
19 | G21A U39C A64G G88U U96C A121U A136G | 0.05
20 | A22G G72U A117G | 2.22
21 | A22G A69G C101A C128U U143C | 0.19
22 | A22G G74A C128U A129G | 1.04
23 | A22G A42G C98G | 0.38
24 | A22G G75A A117G U119C A142G | 1.96

Row | Variant | self-cleavage
25 | A22G U46A U119C | 1.07
26 | A22G A59G A64U | 0.25
27 | A22G U29A A43U G126C | 1.35
28 | A22G G53A U134C A141U | 1.01
29 | U20C G55C A78G U130C | 0
30 | U20C U26C A57G G97A | 0
31 | G21A U29C G36C | 1.58
32 | A22G U52C A64G | 0.35
33 | A22G U52C A64U | 0.39
34 | A22G A31U A57U U91C C145U | 0.13
35 | U20C G75A A124G | 0.79
36 | A22G G35U A50G C110U | 0.7
37 | G21U U26A G41A A43U U102C A141G | 0.84
38 | A22G G74A U85A U109C A142G | 0.05
39 | A22G C61U A78G U143C | 0.1
40 | U20G A77G U132A | 2.59
41 | A22G U39C U47A A57G C133U | 1.02
42 | U20C U29C A138G | 1.53
43 | U20C U29C A64U U85A | 0.03
44 | U20C U26A A42G U73C | 2.04
45 | A22G U46C A79U U143A | 0.73
46 | U20C A121U C145G | 1.36
47 | U20C A69U A140G | 0
48 | A22G U23A A64U U100C U109C A129G | 1.25

Row | Variant | self-cleavage
49 | A22G A31U A64G | 0.31
50 | A22G A69G U81A | 0.45
51 | U20C A42G A59U G82A | 0.96
52 | G21A G53A U73A U100C A129G | 1.16
53 | U20C U39A G114A U134C C146U | 1.64
54 | U20C A42G U73G A129U | 1.24
55 | U20C A43G U115C | 2.3
56 | U20C A77U U85C U96C | 0
57 | A22G A31U C38U | 0.84
58 | U20C A67G A69U | 0
59 | A22G A57C C128U | 0.12
60 | U20C U26C U47C | 2.09
61 | A22C A94U U119A | 0.46
62 | A22G U47C A141G | 1.11
63 | U20C A42G U73C A94G U96A A138G | 0
64 | A22C U29A U62C | 0.05
65 | A22G U39A U96A A140U | 0.12
66 | G21U U73G U100A G114U U119A | 0.86
67 | A22C U39A U102C | 0.56
68 | U20C A67G G88A U134A | 0.04
69 | U20C U73C A94U U130C A138G U143A | 0.77
70 | A22G A107G A138U | 1.11
71 | U20C A42G U102A A140U | 0.78
72 | G21U A22G U23C A50U A77G | 1

Row | Variant | self-cleavage
73 | U20A U115A C118U | 1.08
74 | G21A U81G U119A | 1.3
75 | U20C U29C U115A A121G A124U | 1.31
76 | U20A U104C A141G | 1.41
77 | A22G G35A U115C A121U A140G | 1.33
78 | U20C A31U U143C | 1.3
79 | U20G U62C U73A | 0.1
80 | U20C C38U U39A A59G A140G | 0.08
81 | U20C U119C C131U A138G | 1.34
82 | U20C U47A U52A U96G | 0.05
83 | U20C A69G U85A | 0.45
84 | U20C A77U C128U | 1.25
85 | U20C U62C U100A A136G A142G | 0.13
86 | U20C U96C U143C | 0.07
87 | U20C A64G U104A | 0.22
88 | U20C A22U A42G A43G U96A A138U | 0.12
89 | A22G A42U U115C | 1.13
90 | G21A C61U U91C | 0.05
91 | U20C U96A U134C | 0.17
92 | A22G A121G A140G | 1.58
93 | U20C U39A A43G | 0.66
94 | U20C G122A U132C U143A | 1.82
95 | A22G U39C U91A G114U | 0.6
96 | U20G A69C G125A | 0.04

Row | Variant | self-cleavage
97 | U20C A59G U102C | 0.15
98 | U20C A57G G80A A136U | 2.02
99 | G21U A22G A64U | 0.23
100 | U20C U29G G114A U115C | 1.41
101 | A22G A57G U91C G144A | 0.56
102 | U20A U108C U109C | 0.66
103 | A22G G44A C84U U100C A107G A138G | 0.11
104 | U20C A31U A94G U132C | 0.43
105 | A22G A57G C123U | 0.69
106 | A22G A77G A129G A136G | 2.3
107 | U20C A67U U73C A79C | 0.84
108 | U20C A65G U134A | 0.26
109 | U20C U47C G122A | 2.19
110 | A22G A65G G137A | 0
111 | A22G G34A A141G | 1.01
112 | G21A A79U U96C | 0.21
113 | U20G A59U A78U A138U | 0.94
114 | A22G U62A A78U | 0.08
115 | U20C G36A A43G U91C A140G | 0.22
116 | U20A U108G G126A | 0.18
117 | U20G U23A A69U A79G | 0
118 | A22G A31G A50U | 1.16
119 | U20G G25A C133A A140G | 0.43
120 | A22G U62C U109C | 0.15

Row | Variant | self-cleavage
121 | U20C U100C A136U | 2.74
122 | U20G C63A U104C U130C | 0.21
123 | A22G A57U C118A | 0.1
124 | U20C U85C A138G | 0.47
125 | U20C C99U U100C | 1.15
126 | A22G U52G A78G U91A U96A | 0
127 | U20C U29C A67U G127A | 0.12
128 | A22G A30U U47C A79U C84U | 0.1
129 | U20C U26C A140G | 0.78
130 | U20A U130C A140G | 1.73
131 | A22G A42G U45C A129G | 1.02
132 | U20C U46A C90U | 0.07
133 | U20C U85A A107U A124U U143C | 0.05
134 | A22G A65G U143C | 0
135 | A22G A94C U96C | 0
136 | U20C U26C A141G | 0
137 | U20C G40U A121G A138G | 1.15
138 | U20G A69G A77G | 0.92
139 | A22G U26A U29A U39A U104C | 1.65
140 | A22G A57G A138G A140G | 0.31
141 | A22G U26C U109A | 0
142 | U20C G48A U108C | 2.26
143 | U20C A57G G106A | 0.73
144 | A22G U23C A64G | 0.63

Row | Variant | self-cleavage
145 | U20C A24U U45C | 1.77
146 | U20A U104C C131U | 0.47
147 | A22G G35A G82A | 1.58
148 | U20A U91C A129G | 1.91
149 | A22G A77U U132C | 1.62
150 | U20C U46C U104C | 2.3
151 | U20C U100C U109C | 0.89
152 | A22G G55A U132A | 0.87
153 | A22G A59G A77G A142G | 0.26
154 | U20G G75U A124G | 0.67
155 | A22G C71U C123A | 1.13
156 | U20C A138G A142G | 1.97
157 | A22G A57C A79C | 0
158 | U20C U46C G60A U62C G72A C84U U143A | 0.04
159 | U20C G86C U102G | 0.03
160 | A22G A65G A124G | 0.38
161 | A22G U26C U39C G75A A78U C90U | 0.07
162 | U20C G35A A64G | 0.2
163 | U20G U26A A77G C101A | 1.12
164 | A22G C71U U73A | 0.15
165 | U20C G33A C56U A136G | 0.26
166 | A22G U45A U96C | 0.09
167 | U20A U81C U104C G105A G114A U115C A117U | 1.23
